# The campaign covered roughly 230,000 compounds. About 3,600 (1.6%) were called active. Inconclusive means that the source gave no clear call. Such entries were picked first, then a sample of the others. Calls follow the shape of the dose curve; as a rule, active = well fitted inhibition curve with a large enough effect (not every such curve was filed as active); inconclusive = small, poorly fitted or top-dose-only effect, or another doubt; inactive = no such curve, though single readings can be large or run the other way. Potencies of inconclusive entries are doubtful fits and often do not repeat.
# Biological target: Lysine-specific demethylase 4E (Homo sapiens) (UniProt B2RXH2)
# Chain of UniProt B2RXH2 (B2RXH2 whole entry, looked up, the tested form may be a part): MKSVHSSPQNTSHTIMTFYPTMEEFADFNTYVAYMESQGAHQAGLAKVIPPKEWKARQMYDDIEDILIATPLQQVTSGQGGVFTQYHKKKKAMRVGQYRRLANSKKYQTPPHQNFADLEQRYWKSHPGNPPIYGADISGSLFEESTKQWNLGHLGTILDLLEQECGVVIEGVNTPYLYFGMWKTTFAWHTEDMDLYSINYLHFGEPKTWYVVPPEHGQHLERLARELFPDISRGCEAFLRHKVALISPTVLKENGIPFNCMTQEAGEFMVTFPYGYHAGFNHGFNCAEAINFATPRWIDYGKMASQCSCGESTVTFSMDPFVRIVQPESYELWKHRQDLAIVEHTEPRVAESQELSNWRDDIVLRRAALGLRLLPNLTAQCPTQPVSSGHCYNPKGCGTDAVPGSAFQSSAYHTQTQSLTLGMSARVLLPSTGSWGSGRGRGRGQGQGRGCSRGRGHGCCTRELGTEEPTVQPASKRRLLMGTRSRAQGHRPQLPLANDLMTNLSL
# Assay: qHTS Assay for Inhibitors of Human Jumonji Domain Containing 2E (JMJD2E)
# Settings: JMJD2E catalytic domain, FDH-coupled NADH fluorescence (FDH is formaldehyde dehydrogenase); series mostly up to 57.1 µM; activity change, negative = inhibition: at the top concentration
# Also: nearly all actives have a fitted effect of over 50% in size.
# 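For activity change, negative = inhibition in this document: 0% = wells with enzyme and -100% = buffer wells without enzyme.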
# Potency is read from the fitted curve at half-maximal effect; tags tell the direction and shape of the fitted curve.
SMILES,Potency,"activity change, negative = inhibition"
COc1ccc(Cl)cc1N(CC(=O)Nc1ccccc1C(=O)NCc1ccco1)S(C)(=O)=O,"inconclusive: 31.6 µM [inhibitor, single point]",
Cc1cnc(C)c(N2CCN(Cc3nc(-c4ccc(C)o4)oc3C)CC2)n1,"inconclusive: 3.55 µM [inhibitor, single point]",
CC(C)OC(=O)CC(=O)CSc1nc2c(cc1C#N)CCCC2,"inconclusive: 31.6 µM [inhibitor, partial curve]",
Cc1nc2sc(C(c3cccs3)N3CCC4(CC3)OCCO4)c(O)n2n1 (stereo not given),"inconclusive: 39.8 µM [inhibitor, single point]",
COc1ccccc1-c1nc(NC(C)=O)n[nH]1,,inactive: -15.3%
O=C(CSc1nc2sc3c(c2c(=O)[nH]1)CCC3)NCCO,"inconclusive: 39.8 µM [inhibitor, single point]",
COCCN(CCOC)S(=O)(=O)c1ccc(C(=O)Nc2nnc(CSC)o2)cc1,"inconclusive: 39.8 µM [inhibitor, single point]",
Cc1ccc2c(c1)Cc1nc3ccccc3nc1-2,"inconclusive: 31.6 µM [inhibitor, partial curve]",
CCSc1nc2c(c(=O)[nH]1)C(c1ccc(C)cc1)C1=C(CCCC1=O)N2 (stereo not given),"inconclusive: 7.94 µM [inhibitor, partial curve]",
Cc1ccc(NC(=S)NCCC(c2ccccc2)c2ccccc2)c(C)c1,,inactive: -29.6%
CCOc1c2ccc(C(=O)NCCCCc3ccccc3)cc2nn1C,"inconclusive: 31.6 µM [inhibitor, partial curve]",
CC(=O)CCc1oc2ccc(C)cc2c1-c1ccc(C)o1,,inactive: -7.82%
Cc1cc(C(=O)CSc2nnc(N)s2)c(C)n1-c1c(C)n(C)n(-c2ccccc2)c1=O,,inactive: 3.89%
CCOC(=O)c1oc2ccc(CNC(C)(C)C)c(Cl)c2c1C,"inconclusive: 35.5 µM [inhibitor, single point]",
CCOC(=O)c1c(O)c2cccc3c2n(c1=O)CC3,"inconclusive: 31.6 µM [inhibitor, partial curve]",
OCC1CCCN(Cc2cn(Cc3ccccc3)nc2-c2cc3ccccc3o2)C1 (stereo not given),,inactive: -10.8%
Cc1ccc2cc(C#N)c(SCC(=O)NCc3ccco3)nc2c1,"inconclusive: 39.8 µM [inhibitor, single point]",
COc1cc(/C=N/Nc2nc3ccccc3o2)cc(OC)c1O,"inconclusive: 25.1 µM [inhibitor, single point]",
Cc1cc2cc(CNC(=O)c3cc4ccccc4o3)ccc2n1C,"inconclusive: 39.8 µM [inhibitor, single point]",
N#CC1=C(N)C(C#N)(C#N)[C@H](c2ccsc2)[C@H]2COCC=C12,"inconclusive: 39.8 µM [inhibitor, single point]",
Cc1oc2c(c1C(=O)Nc1cccc(C(=O)O)c1)CCCC2,,inactive: -2.27%
Cc1nc(COC(=O)c2cc(O)c3ccccc3c2O)cs1,"inconclusive: 10 µM [inhibitor, partial curve]",
COC(=O)C1=C(C(=O)OC)[C@@H]2N(C)c3ccccc3[C@@]23C[C@@H](C(=O)OC)N(S(=O)(=O)c2ccc([N+](=O)[O-])cc2)C3=N1,,inactive: -5.64% [at 11.4 µM]
COCCNC(=O)c1cc2c(-c3ccc(Cl)cc3)nn(C)c2s1,"inconclusive: 7.08 µM [inhibitor, full curve]",

SMILES,Potency,"activity change, negative = inhibition"
CSc1nc2ccc3nc(NC(=O)C4COc5ccccc5O4)sc3c2s1 (stereo not given),"inconclusive: 35.5 µM [inhibitor, single point]",
COc1ccc(OC)c2c1sc(=NC(=O)c1ccco1)n2C,"inconclusive: 39.8 µM [inhibitor, single point]",
Cc1ccc(NC(=O)Cn2c(CCC(=O)O)ccc2-c2cccs2)cc1Cl,"inconclusive: 39.8 µM [inhibitor, single point]",
CC1=NOC(=O)/C1=C\c1ccc(-c2ccc(Cl)cc2Cl)o1,,inactive: -4.57%
CC(=O)N1CC=C2C(C#N)=C(N)C(C#N)(C#N)C(CCc3ccccc3)C2C1 (stereo not given),"inconclusive: 28.2 µM [inhibitor, partial curve]",
COc1ccccc1CN1CCN(S(=O)(=O)c2ccccc2)CC1,"inconclusive: 28.2 µM [inhibitor, single point]",
COc1ccc(/C=C/C(=O)OCC(=O)Nc2cc(C(N)=O)cc(C(N)=O)c2)cc1,"inconclusive: 39.8 µM [inhibitor, single point]",
CCN(CC)S(=O)(=O)c1cc(NS(=O)(=O)c2c(Cl)cccc2Cl)ccc1C,,inactive: 1.18%
O=C(COC(=O)c1ccc([N+](=O)[O-])o1)Nc1cccc(S(=O)(=O)N2CCCCC2)c1,,inactive: -22.4%
CCOC(=O)c1cc(-c2cccnc2)nn1-c1ccccc1C,,inactive: -4.48%
COc1ccc(-c2nc(CS(=O)CC(=O)NCCCN3CC(C)CC(C)C3)c(C)o2)cc1OC (stereo not given),"inconclusive: 25.1 µM [inhibitor, single point]",
Cc1ncoc1C(=O)N1CCCC(C(=O)c2ccc(-c3ccccc3)c(F)c2)C1 (stereo not given),,inactive: -13.9%
CN1CCN(C(=O)c2ccc(CSc3ccc(Cl)cc3)cc2)CC1,,inactive: 11.4%
Cc1noc(C)c1C(=O)N1CCC(CO)(Cc2ccccc2)CC1,,inactive: 2.76%
N#Cc1c(NCCCO)nc(-c2ccccc2)c2c1CCCC2,"inconclusive: 28.2 µM [inhibitor, partial curve]",
Cc1nonc1CN(C)C(=O)CC1C(=O)NCCN1Cc1cccc(C(F)(F)F)c1 (stereo not given),"inconclusive: 39.8 µM [inhibitor, single point]",
COc1ccccc1NC(=O)C(C)Sc1nnnn1C (stereo not given),,inactive: -3.64%
O=C(NNc1cc(N2CCCC2)nc(N2CCCC2)n1)c1ccc([N+](=O)[O-])cc1,"inconclusive: 0.0063 µM [inhibitor, full curve]",
O=C(Nc1nnc(-c2cccs2)o1)c1cc(-c2ccccc2)nc2ccccc12,"inconclusive: 39.8 µM [inhibitor, single point]",
O=C(NCC1(c2ccccc2)CCCC1)c1ccco1,"inconclusive: 31.6 µM [inhibitor, single point]",
Cc1cc2cc(C(c3nnnn3C(C)(C)C)N(Cc3ccco3)CC3CCCO3)c(=O)[nH]c2cc1C (stereo not given),"inconclusive: 28.2 µM [inhibitor, partial curve]",
CC(C)Cn1c(=O)c(C(=O)Nc2ccccc2S(N)(=O)=O)c(O)c2ccccc21,"inconclusive: 31.6 µM [inhibitor, single point]",
c1ccc(CSc2n[nH]c(-c3ccco3)n2)cc1,,inactive: 5.67%
CS(=O)(=O)Nc1ccccc1C(=O)O,"inconclusive: 22.4 µM [inhibitor, partial curve]",

SMILES,Potency,"activity change, negative = inhibition"
COC(=O)CNC(=O)c1ccc(=O)oc1,"inconclusive: 35.5 µM [inhibitor, single point]",
C=C(C)COc1ccc(-c2nc(N)ncc2Oc2ccc(OC)cc2)c(O)c1,,inactive: -7.55%
COc1ccc2[nH]c(=O)c(CN(CC3CCCO3)C(=O)Nc3ccc(F)cc3)cc2c1 (stereo not given),"inconclusive: 31.6 µM [inhibitor, partial curve]",
COCCNc1oc(/C=C/c2ccccc2)nc1C#N,"inconclusive: 3.55 µM [inhibitor, full curve]",
Cc1c(C(=O)Nc2ccc3oc(-c4cccnc4)nc3c2)oc2ccccc12,"inconclusive: 3.16 µM [inhibitor, full curve]",
Cc1ccc2c(c1)nnn2C1CCN(CC(=O)N(c2ccccc2)c2ccccc2)CC1,,inactive: -8.6%
CCOC(=O)C1CCCN(C(=O)c2ccc(CNc3c(N4CCC(C)CC4)c(=O)c3=O)cc2)C1 (stereo not given),,inactive: -0.468%
O=C(Nc1ccc(-c2nc3ccccc3[nH]2)cc1)c1ccc(N2C(=O)CCC2=O)cc1,"inconclusive: 25.1 µM [inhibitor, partial curve]",
O=C(N/C(C(=O)N1CCOCC1)=C(\Sc1ncccn1)c1ccccc1)c1ccccc1,"inconclusive: 31.6 µM [inhibitor, single point]",
Cc1nc2ccc(NC(=O)c3cccs3)cc2c(=O)n1Cc1ccc(Cl)cc1,"inconclusive: 39.8 µM [inhibitor, single point]",
COc1ccc(Br)cc1CN1CCCC(C(=O)N2CCCCC2)C1 (stereo not given),"inconclusive: 39.8 µM [inhibitor, single point]",
CCCCn1c(=O)[nH]c(=O)c2c1nc(-c1ccc(-c3ccc(F)cc3)o1)n2C,"inconclusive: 14.1 µM [inhibitor, partial curve]",
O=c1cc2ncc(-n3cc([N+](=O)[O-])cn3)cn2[nH]1,,inactive: -24.4%
Fc1ccc(-c2nnc3ccccn23)cc1,"inconclusive: 28.2 µM [inhibitor, single point]",
CC(=O)Nc1ccc(NC(=O)c2cccc(-c3cc4ccccc4oc3=O)c2)cc1,"inconclusive: 35.5 µM [inhibitor, single point]",
O=C(Nc1ccccc1)N(CCCN1CCOCC1)Cc1cc2cc3c(cc2[nH]c1=O)OCCO3,"inconclusive: 25.1 µM [inhibitor, partial curve]",
O=C(N/N=C/c1ccc2c(c1)OCO2)c1ccccn1,,inactive: 1.36%
Cc1ccc(N(C(C)C(=O)N2CCOCC2)S(C)(=O)=O)cc1C (stereo not given),,inactive: 2.28%
CC(=O)N1c2ccccc2NC2=C(C(=O)CCC2)C1c1ccc(F)cc1 (stereo not given),"inconclusive: 39.8 µM [inhibitor, single point]",
Cc1ccc2[nH]c3c(=O)n(CCCN4CCOCC4)cnc3c2c1,"inconclusive: 3.55 µM [inhibitor, full curve]",
CCCCCn1c2nc3ccccc3nc2c2c(=O)n(CC(C)C)cnc21,"inconclusive: 35.5 µM [inhibitor, single point]",
CC(=O)N1C(=O)C2(C(C#N)=C(N)Oc3c2c(C)nn3-c2ccccc2)c2ccccc21 (stereo not given),,inactive: -12.8%
